The results in this text go back to PMC4336329 (PLoS ONE, 2015).

About 2,200 (0.71%) of roughly 310,000 compounds showed an effect of 50% or more. Effects have a minus sign here. The list shows a part of the results.

For the experiment, the target named is human ether-à-go-go-related gene (hERG) potassium channel (human, UniProt Q12809). In words: primary screen, population patch clamp on CHO cells stably expressing hERG.
Sequence of human ether-à-go-go-related gene (hERG) potassium channel (Q12809 whole entry, looked up): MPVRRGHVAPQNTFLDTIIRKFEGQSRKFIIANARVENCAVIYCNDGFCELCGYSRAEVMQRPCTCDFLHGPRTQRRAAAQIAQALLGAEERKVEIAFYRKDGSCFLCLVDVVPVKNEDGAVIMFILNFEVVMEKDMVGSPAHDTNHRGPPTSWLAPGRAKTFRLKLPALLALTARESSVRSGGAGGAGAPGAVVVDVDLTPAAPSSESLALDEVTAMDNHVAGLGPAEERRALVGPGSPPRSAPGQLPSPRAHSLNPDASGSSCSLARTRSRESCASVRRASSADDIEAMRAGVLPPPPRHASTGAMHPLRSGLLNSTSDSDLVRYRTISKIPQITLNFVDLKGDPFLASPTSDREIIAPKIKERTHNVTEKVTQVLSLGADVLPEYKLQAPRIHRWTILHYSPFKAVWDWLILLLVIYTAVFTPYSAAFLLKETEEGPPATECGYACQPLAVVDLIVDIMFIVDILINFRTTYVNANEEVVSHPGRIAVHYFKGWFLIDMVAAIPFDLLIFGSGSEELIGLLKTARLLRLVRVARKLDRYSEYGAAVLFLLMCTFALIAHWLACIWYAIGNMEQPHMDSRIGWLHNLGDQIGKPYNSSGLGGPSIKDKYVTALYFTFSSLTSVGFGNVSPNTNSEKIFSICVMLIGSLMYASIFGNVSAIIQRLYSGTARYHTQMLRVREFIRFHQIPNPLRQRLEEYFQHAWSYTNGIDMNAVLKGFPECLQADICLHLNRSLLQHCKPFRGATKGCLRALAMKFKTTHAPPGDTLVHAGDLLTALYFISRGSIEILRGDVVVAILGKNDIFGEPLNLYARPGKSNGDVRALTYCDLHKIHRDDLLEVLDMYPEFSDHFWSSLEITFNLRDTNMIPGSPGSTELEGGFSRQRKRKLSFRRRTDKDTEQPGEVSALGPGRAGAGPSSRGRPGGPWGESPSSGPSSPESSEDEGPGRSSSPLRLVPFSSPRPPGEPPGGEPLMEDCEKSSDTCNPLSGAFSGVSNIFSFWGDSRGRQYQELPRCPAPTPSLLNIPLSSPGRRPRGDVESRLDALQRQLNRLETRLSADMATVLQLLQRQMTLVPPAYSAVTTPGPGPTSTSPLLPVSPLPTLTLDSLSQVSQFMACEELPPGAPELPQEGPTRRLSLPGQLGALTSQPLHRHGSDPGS
As to `CCCCCCc1cc2cc(C(N)=O)c(=N)oc2cc1O`, the “hERG current change (%, negative = inhibition) at 1uM” value was -8.07%.

On to `O=C(c1ccccn1)N(Cc1ccco1)C1(C(=O)NC2CCCCC2)CCCCC1`, for which the “hERG current change (%, negative = inhibition) at 1uM” value amounted to 11.2%.

For the molecule `O=C(Nc1ccc2c(c1)OCO2)Oc1ccccc1`, the “hERG current change (%, negative = inhibition) at 1uM” value amounted to 5.63%.

Regarding `CCOc1ccc(CCNC(=O)COC(=O)Cn2cnc3c2c(=O)n(C)c(=O)n3C)cc1OCC`, the “hERG current change (%, negative = inhibition) at 1uM” value was found to be 9.55%.

In the case of `CCCCCn1c(CN2CCN(c3cccc(Cl)c3)CC2)nc2c1c(=O)n(C)c(=O)n2C`, the “hERG current change (%, negative = inhibition) at 1uM” value is -5.11%.

Take `COc1ccc(C(=O)NCc2nnc(SCC(=O)Nc3ccc4c(c3)OCO4)o2)cc1`: the “hERG current change (%, negative = inhibition) at 1uM” value is given as 13%.

Take `CCCOC(=O)C1=C(C)NC2=C(C(=O)CCC2)C1c1cccs1` (stereo not shown): the “hERG current change (%, negative = inhibition) at 1uM” value is on record as 8.64%.

In the case of `COc1ccc(C(=O)CN2C(=O)NC3(CCc4ccccc43)C2=O)c(OC)c1` (stereo not shown), the “hERG current change (%, negative = inhibition) at 1uM” value is given as 8.22%.

Turning to `CC(=O)N1c2ccc(S(=O)(=O)N3CCCC3C(=O)Nc3ccc(C)cc3)cc2CC1C` (stereo not shown), the “hERG current change (%, negative = inhibition) at 1uM” value is recorded as -7.07%.

With `CCCOc1ccccc1NC(=O)CC1Nc2ccccc2NC1=O` (stereo not shown), the “hERG current change (%, negative = inhibition) at 1uM” value came out at 12.2%.

For the molecule `CCc1ccc2c(c1)C(NC(C)=O)C(=O)N2CCN1CCOCC1.Cl` (stereo not shown), the “hERG current change (%, negative = inhibition) at 1uM” value was 5.3%.

On to `COc1ccc(NS(=O)(=O)c2ccc3c(c2)NC(=O)CO3)cc1`, for which the “hERG current change (%, negative = inhibition) at 1uM” value is given as 11.8%.

For `O=C(c1ccc2snnc2c1)N1CCN(c2ccccn2)CC1`, the “hERG current change (%, negative = inhibition) at 1uM” value is reported as -0.237%.

On to `O=C1/C(=C\c2ccsc2)NC(=S)N1c1ccccc1`, for which the “hERG current change (%, negative = inhibition) at 1uM” value was found to be 9.16%.

As for `C/C=C/C(=O)OCC(=O)Nc1ccc(OC)c(OC)c1`, the “hERG current change (%, negative = inhibition) at 1uM” value came to 2.95%.

Consider `CC1CCCC(C)N1C(=O)COC(=O)c1c[nH]c2ccccc12` (stereo not shown), for which the “hERG current change (%, negative = inhibition) at 1uM” value was determined as 9.94%.

For `O=C1CC2(CCN(C(=O)c3cccc(F)c3)CC2)Oc2ccccc21`, the “hERG current change (%, negative = inhibition) at 1uM” value was -32.6%.

Turning to `C=C(C)C1CC=C(C)/C(=N/NC(=O)COc2ccccc2C)C1` (stereo not shown), the “hERG current change (%, negative = inhibition) at 1uM” value came out at 4.71%.

Take `Cc1ccccc1CN1C(=O)c2ccccc2S(=O)c2ccc(C(=O)NCCCN3CCOCC3)cc21` (stereo not shown): the “hERG current change (%, negative = inhibition) at 1uM” value is -14.3%.

As for `COc1cc(/C=N/Nc2nc(N3CCCC3)nc(N3CCCC3)n2)ccc1OCc1ccccc1F`, the “hERG current change (%, negative = inhibition) at 1uM” value came to 14.2%.

Take `CSc1nc2ccc(NS(=O)(=O)c3c(Cl)cccc3Cl)cc2s1`: the “hERG current change (%, negative = inhibition) at 1uM” value is 6.4%.

As to `O=C(CSCc1cccc(CSCC(=O)Nc2ccc3ccccc3c2)n1)Nc1ccc2ccccc2c1`, the “hERG current change (%, negative = inhibition) at 1uM” value is listed as 8.91%.

Turning to `COc1cccc(Nc2nc(Nc3ccc(Cl)c(C(=O)O)c3)nc(C)c2[N+](=O)[O-])c1`, the “hERG current change (%, negative = inhibition) at 1uM” value is given as 9.52%.

`CC(=O)N(C(C)=O)N1C(=O)c2cccc3c(N4CCOCC4)ccc(c23)C1=O`: the “hERG current change (%, negative = inhibition) at 1uM” value is listed as 4.95%.

On to `Cc1ccccc1-n1nnnc1SC1CCOC1=O` (stereo not shown), for which the “hERG current change (%, negative = inhibition) at 1uM” value is listed as 8.46%.

Regarding `CC(OC(=O)c1ccc(S(=O)(=O)N(C)c2ccccc2)cc1)C(=O)NCCC1=CCCCC1` (stereo not shown), the “hERG current change (%, negative = inhibition) at 1uM” value worked out at 8.78%.

Take `Cc1cccc(C)c1-n1c(C)cc(/C=N/NC(N)=S)c1C`: the “hERG current change (%, negative = inhibition) at 1uM” value is 9.78%.

In the case of `COc1ccccc1Nc1ccc(C(=O)O)cc1[N+](=O)[O-]`, the “hERG current change (%, negative = inhibition) at 1uM” value was found to be 11.6%.

Take `Cl.Fc1ccc(C2CCNCC2COc2ccc3c(c2)OCO3)cc1` (stereo not shown): the “hERG current change (%, negative = inhibition) at 1uM” value turned out to be 6.32%.

Regarding `CN(C)c1ccc(CNn2cnnc2SCc2ccc(F)cc2)cc1`, the “hERG current change (%, negative = inhibition) at 1uM” value is given as 0.965%.

As for `COc1cccc(CN2CCN(Cc3ccco3)CC2)c1.O=C(O)C(=O)O`, the “hERG current change (%, negative = inhibition) at 1uM” value is on record as 18%.

On to `CC(C)(C)NC(=O)C(c1cccs1)N(Cc1cccs1)C(=O)c1csnn1` (stereo not shown), for which the “hERG current change (%, negative = inhibition) at 1uM” value is -5.61%.

For `Cc1ccc(-n2c(C)n[nH]c2=S)cc1C`, the “hERG current change (%, negative = inhibition) at 1uM” value is recorded as 10.8%.

With `COc1ccc(-c2cn(CCC(=O)O)c(C)n2)cc1`, the “hERG current change (%, negative = inhibition) at 1uM” value was 7.25%.

With `CN(C)c1ccc(/C=N/N2C(=S)SC(C)(C)C2N(O)C(=O)Nc2ccc([N+](=O)[O-])cc2)cc1` (stereo not shown), the “hERG current change (%, negative = inhibition) at 1uM” value is 5.86%.

As to `O=C(c1ccccc1Cl)N(Cc1ccc(Br)cc1)N1C(=O)CCCC1=O`, the “hERG current change (%, negative = inhibition) at 1uM” value worked out at 10.2%.

Consider `O=C(c1ccco1)N1CCN(CC(=O)N(C2CCCCC2)C2CCS(=O)(=O)C2)CC1` (stereo not shown), for which the “hERG current change (%, negative = inhibition) at 1uM” value stood at 13.9%.

`O=C(Nc1ccc(C(=O)N2CCN(c3ccccc3F)CC2)cc1)C1=CSCCO1`: the “hERG current change (%, negative = inhibition) at 1uM” value was 14%.

With `Cn1cnc(NCc2ccccc2)c1[N+](=O)[O-]`, the “hERG current change (%, negative = inhibition) at 1uM” value amounted to 12.2%.

`O=C(Cc1cccs1)N/N=C/c1ccco1`: the “hERG current change (%, negative = inhibition) at 1uM” value is 16%.

Consider `Nc1cc(C(=O)N2CCN(c3ccc([N+](=O)[O-])cc3)CC2)ccc1N1CC2CC(C1)c1cccc(=O)n1C2` (stereo not shown), for which the “hERG current change (%, negative = inhibition) at 1uM” value came out at 6.93%.

As for `Cc1cc2c(cc1C)N(Cc1ccccc1)C1=NCCCN12.Cl`, the “hERG current change (%, negative = inhibition) at 1uM” value is given as -26.6%.

As to `Cc1cc(C)nc(SCC(=O)OCC(=O)N(C)c2c(N)n(Cc3ccccc3)c(=O)[nH]c2=O)n1`, the “hERG current change (%, negative = inhibition) at 1uM” value is listed as 14.9%.

As to `O=C(/C=C/c1ccc([N+](=O)[O-])cc1)NC1CC2CCC1C2` (stereo not shown), the “hERG current change (%, negative = inhibition) at 1uM” value is listed as -9.35%.

Turning to `O=C(N/N=C\c1ccc(Sc2ccccn2)o1)c1cccc(Br)c1`, the “hERG current change (%, negative = inhibition) at 1uM” value is 13.6%.

`Cc1nn(C(C)C)c(C)c1CN1CCN(Cc2ccsc2)C(CCO)C1` (stereo not shown): the “hERG current change (%, negative = inhibition) at 1uM” value was 11.9%.

As to `Cc1cccc(OCCC(=O)OCC(=O)N2CCc3ccccc32)c1`, the “hERG current change (%, negative = inhibition) at 1uM” value came out at 13.2%.

In the case of `Cc1ccc(NC(=O)N2CCC(C(=O)NCCC3=CCCCC3)CC2)cc1`, the “hERG current change (%, negative = inhibition) at 1uM” value is on record as -0.318%.

For `O=C1c2ccccc2NC(c2ccccc2)N1c1ccc(O)cc1` (stereo not shown), the “hERG current change (%, negative = inhibition) at 1uM” value is reported as 5.5%.

As to `CCC(=O)Nc1ccc(Cl)c(NC(=O)c2ccccc2OC)c1`, the “hERG current change (%, negative = inhibition) at 1uM” value was determined as 4.96%.

On to `O=S(=O)(Nc1ccncc1Cl)c1cc(Cl)ccc1Cl`, for which the “hERG current change (%, negative = inhibition) at 1uM” value is on record as 9.03%.

Turning to `CCC(=O)Nc1ccc(NC(=O)CSc2nc3c(c(=O)n(C)c(=O)n3C)n2CC)cc1`, the “hERG current change (%, negative = inhibition) at 1uM” value turned out to be 7.12%.

Turning to `C=C1CCN([C@@H](C)C(=O)NCc2cc(OC)c(OC)c(OC)c2)S(=O)(=O)c2ccccc21`, the “hERG current change (%, negative = inhibition) at 1uM” value was 11.7%.

As for `Cc1nc2ccc(S(=O)(=O)NCC(=O)O)cc2s1`, the “hERG current change (%, negative = inhibition) at 1uM” value was found to be 6.23%.

Take `Cc1cccc(NC(=O)C(c2cccc([N+](=O)[O-])c2)N2CCCCC2)c1` (stereo not shown): the “hERG current change (%, negative = inhibition) at 1uM” value was 14.9%.
